The record followed here is PubChem BioAssay AID1963576 (National Center for Advancing Translational Sciences (NCATS), 2024).

The campaign covered roughly 46,000 compounds. About 60 (0.1%) were called active. Another 3% or so got no clear call; they are omitted. Calls follow the shape of the dose curve; as a rule, active = well fitted inhibition curve with a large enough effect; inconclusive = small, poorly fitted or top-dose-only effect; inactive = no such curve, though single readings can be large or run the other way. The list shows a part of the results.

The assay is described as follows: Primary qHTS assay for Inhibitors of ovarian cancer metastasis using an organotypic tumor microenvironment (TME) model. Also: nearly all actives have a fitted effect of over 65% in size.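 As to activity change, negative = inhibition: plate controls were DMSO wells for no effect and tomatine positive control wells for full effect.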 To be noted: SKOV3ip1-GFP adhesion/invasion on 3D omental model, fluorescence; series mostly up to 45.8 µM; activity change, negative = inhibition: at the top concentration. Summed up:
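Primary human omental fibroblast/mesothelial 3D culture pre-formed 48 h. SKOV3ip1-GFP cells added with compounds (0.36-46 umol/L), incubated 2 h RT/16 h 37 C, fixed; GFP cells quantified at 488/509 nm.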
As for `COc1ccc(CCNC(=O)Cn2c(C)c3cnn(-c4ccccc4)c(=O)c3c2C)cc1OC`, the molecule was called inactive.
Turning to `CCOc1ccc(NC(=O)Cn2cnc3nc4c(cc3c2=O)CCCC4)cc1`, the “activity change, negative = inhibition” value was inactive: 1.35%.
As for `CCn1cc2nc(SCc3cccc(C(F)(F)F)c3)n(CCc3ccccc3)c(=O)c2n1`, the outcome was inactive.
As for `CC1=C(C(N)=O)C(c2ccc(C(C)C)cc2)n2nc(SCc3ccccc3F)nc2N1` (centres undefined), the call was inactive.
In the case of `Fc1ccc(-n2ncc3c(Nc4ccc(Oc5ccc(Cl)cc5)cc4)ncnc32)cc1`, the “activity change, negative = inhibition” value is inactive: 2.02%.
The same measure, in the same setting: in the case of `COc1ccc(-c2[nH]c(-c3ccc(F)cc3)nc2SCC(=O)Nc2ccc(OC)c(OC)c2)cc1` it was inactive: -2.57%.
`CCN1Cc2cccc(C(=O)Nc3ccc(F)cc3)c2C1=O`: the call was inactive.
As to `COc1ccc2c(c1)c(N1CCCC1=O)c(C(=O)Nc1ccc(Cl)cc1C)n2C`, the “activity change, negative = inhibition” value is inactive: 27.5%.
On to `CCOC(=O)c1ccc(OCC2c3cc(OC)c(OC)cc3CCN2C(=O)Cc2ccc(OC)c(OC)c2)cc1` (centres undefined), for which the molecule was called inactive.
`CNC(=O)c1ccc(NC(=O)c2nsc3ccccc23)cc1`: the “activity change, negative = inhibition” value is inactive: -0.74%.
On to `CCOC(=O)c1ccc(NC(=O)Cn2nnc(-c3ccc(C(F)(F)F)cc3)n2)cc1`, for which the molecule was called inactive.
Regarding `Cc1ccc(-c2csc(=Nc3ccccc3)n2CCCO)cc1`, the “activity change, negative = inhibition” value was inactive: 4.39%.
Consider `COC(=O)CNC(c1ccccc1)c1cc(Br)ccc1NC(=O)c1cc(OC)c(OC)c(OC)c1` (centres undefined), for which the molecule was classed as inactive.
In the case of `CC1=C(c2ccc(Cl)cc2)S(=O)(=O)N=C1N1CCN(c2cccc(C)c2)C(C)C1` (centres undefined), the outcome was inactive.
`CCCCNC(=O)c1ccc(-c2nc(CS(=O)(=O)c3ccc(C)cc3)c(C)o2)cc1`: the “activity change, negative = inhibition” value is inactive: 0.314%.
As for `Cc1ccc(N2CC(c3nnc(Cc4ccc(F)cc4Cl)o3)CC2=O)cc1` (centres undefined), the “activity change, negative = inhibition” value is inactive: -3.99%.
As to `Cc1ccc(-n2c(SCc3nc(-c4ccccc4C)no3)nnc2-c2ccncc2)cc1C`, the “activity change, negative = inhibition” value is inactive: -21.5%.
On the same count and under the same terms, then `CC(=O)N(C)C1(c2ccccc2)CCN(CCC[C@]2(c3ccc(Cl)c(Cl)c3)CCCN(C(=O)c3ccccc3)C2)CC1`, with inactive: -13%; and `CCc1ccc(NC(=O)CCS(=O)(=O)c2ccc3c(c2)oc(=O)n3C)cc1`, with inactive: 0.347%.
Turning to `CCOC(=O)c1c(-c2ccc(C)cc2)csc1NC(=O)c1ccc(C(C)(C)C)cc1`, the “activity change, negative = inhibition” value was inactive: 6.45%.
Regarding `COC(=O)c1ccc(OC)c(Cn2c(=O)n(-c3cccc(Cl)c3)c(=O)c3c2c2cc(C)ccc2n3C)c1`, the “activity change, negative = inhibition” value is inactive: 2.51%.
Take `COc1ccc(CCNC(=O)CCCn2c(=O)c3ccccc3n(CC(=O)Nc3c(C)cc(C)cc3C)c2=O)cc1OC`: the “activity change, negative = inhibition” value is inactive: 6.74%.
As for `Cc1cc(C)c(C#N)c(SCC(=O)Nc2ccccc2C#N)n1`, the result was inactive.
As to `Cc1ccc(N2CCN(C(=O)CCc3c(C)nc4ncnn4c3C)CC2)c(C)c1`, the “activity change, negative = inhibition” value is inactive: -2.24%.
For the molecule `Cc1ccc(-n2ncc(C(=O)N3CCc4ccccc4C3)c2C2CCN(C(=O)OC(C)(C)C)CC2)cc1C`, the result was inactive.
Consider `Cc1ccc(C)c(CN2C(=O)c3ccccc3Sc3ccc(C(=O)NC4CCCC4)cc32)c1`, for which the “activity change, negative = inhibition” value was inactive: 10.3%.
The same measure, in the same setting: then `CC(C)(C)C(=O)OCc1cc(=O)n2nc(C3CCCCC3)sc2n1`, with inactive: 4.46%; and `COc1ccc(-c2nc(CN3CCC(C(=O)NCCN(CC(C)C)CC(C)C)CC3)c(C)o2)cc1OC`, with inactive: 3.13%.
`CCn1cc(C(=O)NCCc2ccc(OC)c(OC)c2)c(=O)c2cc(S(=O)(=O)N3CCc4ccccc4C3)ccc21`: the molecule was classed as inactive.
Regarding `COc1cccc(CNC(=O)CSc2ncc(S(=O)(=O)c3ccc(C)c(Cl)c3)c(=O)[nH]2)c1`, the molecule was called inactive.
Still for that read-out and setting: in the case of `CCS(=O)(=O)c1ncc(Cl)c(C(=O)N(Cc2ccccc2)Cc2ccco2)n1` it was “inactive”.
Same read-out and setting: in the case of `COc1ccccc1-c1noc(-c2ccc(NCCc3ccccc3)c([N+](=O)[O-])c2)n1` it was “inactive”.
`COc1cccc2cc(-c3nc(Cl)c4c5c(sc4n3)CC(C)CC5)c(=O)oc12` (centres undefined): the “activity change, negative = inhibition” value is inactive: -2.83%.
Same read-out and setting: then `CCc1ccc(NC(=O)Cn2c(=O)n(Cc3ccccc3)c(=O)c3oc4ccccc4c32)cc1`, with inactive: 5.31%; and `COc1ccc(NC(=O)CSc2nc3c(c(=O)[nH]2)CN(Cc2ccccc2)CC3)cc1Cl`, with inactive: 1.68%.
Still for that read-out and setting: then `Cc1ncc(CO)c2c1Oc1nc(-c3ccccc3F)nc(SCC(=O)N3CCCCC3)c1C2`, with inactive: 2.33%.
Turning to `COC(=O)c1ccccc1NC(=O)CN1C(=O)COc2ccccc21`, the result was inactive.
`CCOc1cc(C(=O)Nc2c(NC)c3ccccc3oc2=O)cc(OCC)c1OCC`: the “activity change, negative = inhibition” value was inactive: -12.9%.
Regarding `CCc1ccc(NC(=O)c2cnn(-c3c(C)cccc3C)c2C2CCNCC2)cc1`, the “activity change, negative = inhibition” value is inactive: -8%.
Same read-out and setting: in the case of `Cc1ccc(S(=O)(=O)c2cn(C)c3cc(N4CCCC4)c(F)cc3c2=O)c(C)c1` it was inactive: -1.11%.
Same read-out and setting: in the case of `Cc1oc(-c2ccc(Cl)cc2)nc1CSc1nnc(C)n2c1cc1sccc12` it was inactive: 5.2%; in that of `Cc1ccc(CCNc2nc3ccccc3c3nc(-c4ccccc4)nn23)cc1`, inactive: 0.955%; in that of `CCCNC(=O)C1CCN(c2cc(C)nc3c(-c4ccc(OC)c(OC)c4)c(C)nn23)CC1`, inactive: -15.1%.
Take `CCOc1ccc(N2CC(c3nc4ccccc4n3CCC3CCCCC3)CC2=O)cc1` (centres undefined): the “activity change, negative = inhibition” value is inactive: 3.59%.
Same read-out and setting: then `COc1ccc(CN2C(=O)N(c3ccc(F)cc3)C(=O)C2CC(=O)Nc2ccccc2)cc1` (centres undefined), with inactive: -0.226%.
For the molecule `CCn1c(=O)cc(OCC(=O)NCc2ccc(F)cc2Cl)c2ccccc21`, the “activity change, negative = inhibition” value is inactive: -0.91%.
As to `CCOC(=O)c1ccc(N2C(=O)c3[nH]nc(-c4ccc(OC)cc4)c3C2c2ccc(C)cc2)cc1` (centres undefined), the “activity change, negative = inhibition” value is inactive: -17.3%.
Consider `CCOCCCNC(=O)c1c(NC(=O)c2cc(=O)c3cc(C)c(C)cc3o2)sc2c1CCC2`, for which the “activity change, negative = inhibition” value was inactive: -5.88%.
Regarding `Cc1ccc(C)c(NC(=O)CSc2nncn3c2cc2sccc23)c1`, the outcome was inactive.
On to `COc1ccc2sc(N(Cc3cccnc3)C(=O)c3ccco3)nc2c1`, for which the “activity change, negative = inhibition” value was inactive: 2.75%.
Still for that read-out and setting: in the case of `CCc1cccc(C)c1NC(=O)Nc1csc2c1CCCC2` it was inactive: 13%; in that of `O=C1CN(C(=O)c2ccccc2)C(c2ccc(F)cc2)c2cc(Br)ccc2N1` (centres undefined), inactive: 3.09%.
As for `Cc1cccc(CS(=O)(=O)CC2Nc3ccc(C(=O)NCc4ccccc4Cl)cc3NC2=O)c1` (centres undefined), the “activity change, negative = inhibition” value is inactive: 2.63%.
Turning to `COc1ccc(-c2noc(-c3ccc(NC4CCCCC4)c([N+](=O)[O-])c3)n2)cc1OC`, the call was inactive.
The same measure, in the same setting: in the case of `COC(=O)c1cc(NC(=O)Cn2ncc3c2-c2ccccc2OC3)cc(C(=O)OC)c1` it was “inactive”.
Take `O=C(NCCc1c[nH]c2ccccc12)Nc1ccccc1C(F)(F)F`: the “activity change, negative = inhibition” value is inactive: -2.41%.
For `N#Cc1ccccc1CSc1nnc(-c2ccccc2)o1`, the call was inactive.
Take `COc1cc(C(=O)Nc2ccc(OCc3cc(=O)n4ccc(C)cc4n3)cc2)cc(OC)c1OC`: the “activity change, negative = inhibition” value is inactive: 20.3%.
As for `COc1cc(Nc2ncnc3onc(-c4ccc(Cl)cc4)c23)cc(OC)c1`, the result was inactive.
